The whole screen tested about 280,000 compounds, of which about 100 (0.036%) were called active. The inconclusive results got no clear call from the source; some entries with a clear call stand among them for comparison. Calls follow the shape of the dose curve; as a rule, active = well fitted inhibition curve with a large enough effect in the signal ratio, with a control signal flat (not every such curve was filed as active); inconclusive = small, poorly fitted or top-dose-only effect, or effect the other way, or a change in a side signal; inactive = no such curve, though single readings can be large or run the other way; the % refers to the signal ratio. A potency beside an inconclusive call is a rough fit, not a confirmed value. “Side channel” marks fits to a control or component signal instead of the main read-out.
These compounds were tested against Muscleblind-like protein 1 (Homo sapiens) (UniProt Q9NR56) (assay: qHTS Assay for Inhibitors of MBNL1-poly(CUG) RNA binding). Settings: TR-FRET MBNL1-His/biotin-(CUG)12 binding, 665/545 ratio; series mostly up to 57.5 µM.
Chain of UniProt Q9NR56 (Q9NR56 whole entry, looked up): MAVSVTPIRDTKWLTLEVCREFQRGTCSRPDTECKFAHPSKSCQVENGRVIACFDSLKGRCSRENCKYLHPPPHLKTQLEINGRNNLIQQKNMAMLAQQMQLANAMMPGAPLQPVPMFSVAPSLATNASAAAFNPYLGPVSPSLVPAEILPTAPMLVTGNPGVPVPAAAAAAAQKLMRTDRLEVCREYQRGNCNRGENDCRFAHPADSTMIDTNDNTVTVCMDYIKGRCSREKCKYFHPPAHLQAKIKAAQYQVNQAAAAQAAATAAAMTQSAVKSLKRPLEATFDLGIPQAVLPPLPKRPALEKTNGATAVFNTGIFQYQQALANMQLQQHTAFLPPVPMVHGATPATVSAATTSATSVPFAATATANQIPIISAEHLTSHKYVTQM
How it was run: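 Compound titration spanned 92 nM–58 uM against the MBNL1-His/biotin-(CUG)12 complex. After 60 min at room temperature with 5 nM streptavidin-XL665 and 0.055 ng/ul terbium anti-His, ratiometric 665/545 nm emission (Ex 340 nm) normalized to controls.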
Potency is read from the fitted curve at half-maximal effect; tags tell the direction and shape of the fitted curve or compound fluorescence and quenching.

Structure (SMILES)	Potency
CC(C)(C)C(=O)NC(=S)Nc1ccc(Cc2ccncc2)cc1	inactive
COc1ccc(/C=N\NC(=O)c2ccc([N+](=O)[O-])cc2)cc1COc1c(F)c(F)cc(F)c1F	inconclusive: 11.2 µM [quencher, side channel, partial curve]
COc1ccc(CCNC(=O)c2ccc3nc(-c4ccco4)c(-c4ccco4)nc3c2)cc1OC	inconclusive: 20 µM [quencher, side channel, partial curve]
O=C(CNC(=O)c1cccnc1)N=Nc1c(O)[nH]c2c(Br)cc(Br)cc12	inconclusive: 3.55 µM [quencher, side channel, full curve]
Cc1ccc(S(=O)(=O)c2ncccc2[N+](=O)[O-])cc1	inconclusive: 11.2 µM [quencher, side channel, partial curve]
COc1ccc(NC(=O)C2CC(=O)N(c3ccccc3C)C2)c(OC)c1 (stereo unspecified)	inactive
CCCCCCOC(=O)C(C#N)c1nc2ccccc2nc1N1CCOCC1 (stereo unspecified)	inactive
CCN(CC)S(=O)(=O)c1ccc(N=N/C(C(C)=O)=C(/C)O)cc1	inconclusive: 5.01 µM [quencher, side channel, full curve, poor fit]
Cc1ccccc1C(=O)NC(=S)Nc1ccc(S(=O)(=O)N2CCN(C)CC2)cc1	inactive
CCOc1ccc(NC(=O)CSc2nnc(Cn3cnc([N+](=O)[O-])n3)n2CC)cc1	inconclusive: 14.1 µM [quencher, side channel, partial curve]
COc1ccc(Nc2ncc3c(n2)CC(c2ccc(OC)cc2)CC3=O)cc1 (stereo unspecified)	inactive
Cn1c(N)c(C#N)c2c(c1=S)COC(C)(C)C2	inconclusive: 31.6 µM [quencher, side channel, single point]
N#C/C(=C(/O)CCl)c1nc2c(s1)CCc1ccccc1-2	inactive
CN1CCN(C(=O)/C=C/c2ccc(Cl)c(Cl)c2)CC1	inconclusive: 39.8 µM [quencher, side channel, single point]
CSc1nc2sc3c(c2c(=O)[nH]1)CC(C)(C)OC3	inconclusive: 0.891 µM [quencher, side channel, single point]
CCN(CC)C(=O)C1CCC(CNS(=O)(=O)c2cccc3nsnc23)CC1 (stereo unspecified)	inconclusive: 10 µM [quencher, side channel, partial curve]
O=C(/C=C/c1ccc(-c2cccc([N+](=O)[O-])c2)o1)N1CCOCC1	inconclusive: 14.1 µM [quencher, side channel, partial curve]
CCOC(=O)Cn1c(=NC(=O)CSC(C)=O)sc2cc(F)ccc21	inconclusive: 0.355 µM [quencher, side channel, partial curve, poor fit]
COc1cc(/C=C(/NC(=O)c2ccccc2)C(=O)Nc2cccc(O)c2)c([N+](=O)[O-])cc1OC	inconclusive: 11.2 µM [quencher, side channel, partial curve]
COCCNc1nc(SC)nc2sc3c(c12)CCN(C)C3	inactive
O=C(Nc1cc(C(=O)Nc2ccccc2C(=O)O)cc(C(=O)Nc2ccccc2C(=O)O)c1)c1ccccc1	inconclusive: 25.1 µM [quencher, side channel, single point]

Structure (SMILES)	Potency
Cc1nc2sccn2c(=O)c1S(=O)(=O)Nc1ccc(N2CCN(C(=O)C(C)C)CC2)cc1	inconclusive: 39.8 µM [quencher, side channel, single point]
CCOc1ccc(/C=C/C(=O)Nc2ccc(C(N)=O)cc2)cc1OC	inconclusive: 0.1 µM [fluorescent, side channel, partial curve, poor fit]
CSCCC(NC(=O)c1cc(C)oc1C)C(=O)O (stereo unspecified)	inactive
O=C(COC(=O)c1ccc(Sc2ccccc2)c([N+](=O)[O-])c1)NC1CCS(=O)(=O)C1 (stereo unspecified)	inconclusive: 8.91 µM [quencher, side channel, full curve, poor fit]
O=C(N=NC(=O)c1ccco1)c1ccc2c(O)n(N3C(=O)c4ccccc4C3=O)c(O)c2c1	inconclusive: 17.8 µM [quencher, single point]
CC(C)CCC(O)(CCC(C)C)C(=O)NN1CCCCC1	inconclusive: 3.55 µM [fluorescent, side channel, full curve]
CC1=NN(C(N)=S)C(=O)C1N=Nc1cccc(C(=O)O)c1 (stereo unspecified)	inconclusive: 3.98 µM [quencher, side channel, full curve]
O=C(CNC(=O)c1ccco1)N=Nc1c(O)[nH]c2ccc(Br)cc12	inconclusive: 2.24 µM [quencher, side channel, full curve]
CC1CC(C)CN(CCOCCSc2ccc(Cl)cc2)C1 (stereo unspecified)	inactive
S=c1[nH]c2ccccc2n2c(=S)[nH]nc12	inconclusive: 22.4 µM [quencher, side channel, single point]
O=C(c1ccc(Oc2ccc(Cl)cc2)c([N+](=O)[O-])c1)N1CCCC1	inconclusive: 25.1 µM [quencher, side channel, partial curve]
CC(NC(=O)CN(C)S(=O)(=O)c1cccc2nsnc12)c1ccccc1 (stereo unspecified)	inconclusive: 7.08 µM [quencher, side channel, partial curve]
COC(=O)Cn1nnc2c(cnn2-c2ccccc2)c1=O	inconclusive: 28.2 µM [quencher, side channel, single point]
S=c1[nH]nc(-c2ccccc2)n1/N=C/C=C/c1ccco1	inconclusive: 3.16 µM [quencher, side channel, single point]
COc1ccc(C(=O)c2ccc([N+](=O)[O-])cc2Cl)cc1	inconclusive: 14.1 µM [quencher, side channel, partial curve]
O=C(NCCCC(=O)N1CCCCC1)c1ccc(Cl)cc1	inactive
COc1nc(OC)nc(Oc2ccc([N+](=O)[O-])cc2Cl)n1	inconclusive: 15.8 µM [quencher, side channel, partial curve]
Cc1cccc(/C(N)=N/OC(=O)Cc2cccc3ccccc23)c1	inactive
CCOC(=O)C1CCN(C(=O)Cn2ncc3c([nH]c4ccccc43)c2=O)CC1	inactive
Cc1cc(C)n(CC(O)Cn2ccc3ccccc32)n1 (stereo unspecified)	inactive
O=[N+]([O-])c1ccc(NCCCN2CCOCC2)c(Cl)c1	inconclusive: 8.91 µM [quencher, side channel, partial curve]

Structure (SMILES)	Potency
CCOC(=O)Cn1c(=O)c(F)cn(Cc2ccc(OC)c([N+](=O)[O-])c2)c1=O	inconclusive: 17.8 µM [quencher, side channel, partial curve]
COc1ccc(NCC(=O)N/N=C/C=C\c2ccccc2)cc1	inconclusive: 25.1 µM [quencher, side channel, partial curve]
Cc1nn(C(=O)c2cccc([N+](=O)[O-])c2)c(C)c1Cl	inconclusive: 8.91 µM [quencher, side channel, partial curve, poor fit]
Cc1cc(C)cc(OCC(=O)NNC(=S)NC(=O)C2CC2)c1	inactive
O=[N+]([O-])c1ccc(S(=O)(=O)NCCS(=O)(=O)N2CCN(c3ccccc3)CC2)cc1	inconclusive: 7.94 µM [quencher, side channel, full curve]
CC(=O)Nc1nnc(S(=O)(=O)N2CCN(c3ccc([N+](=O)[O-])cc3Cl)CC2)s1	inconclusive: 25.1 µM [quencher, side channel, single point]
Cc1ccc(NC(=O)c2cc(=O)c3ccccc3o2)cc1S(=O)(=O)N1CCCCC1	inconclusive: 15.8 µM [quencher, side channel, partial curve]
Cc1ccc(NC(=O)C(C)N2CCc3ccccc3C2)cc1 (stereo unspecified)	inactive
CN1C(=O)C2(OCC(COc3ccc(Cl)cc3)O2)c2ccccc21 (stereo unspecified)	inactive
COc1cc([N+](=O)[O-])ccc1NC(=O)Cc1ccc(C)cc1	inconclusive: 10 µM [quencher, side channel, partial curve]
O=C(/C=C\Nc1ccccn1)c1ccccc1	inconclusive: 12.6 µM [quencher, side channel, partial curve]
Nc1nonc1C(=O)N/N=C/c1ccc(-c2ccc(Cl)c(C(=O)O)c2)o1	inconclusive: 11.2 µM [quencher, side channel, partial curve]
COc1cccc(CC(=O)N2CCN(c3ccccc3[N+](=O)[O-])CC2)c1	inconclusive: 22.4 µM [quencher, side channel, single point]
Cc1ccccc1NS(=O)(=O)c1ccc2c3c(cccc13)C(=O)N2C	inconclusive: 25.1 µM [quencher, side channel, partial curve]
O=C(Nc1ccc(-c2nc3ccccc3[nH]2)cc1)c1ccco1	inconclusive: 39.8 µM [quencher, side channel, partial curve]
CCN(CC)CCOC(=O)c1ccc(N/C=C(/C#N)c2nc(-c3ccc(OC)c(OC)c3)cs2)cc1	inconclusive: 11.2 µM [quencher, side channel, partial curve]
COc1ccc([N+](=O)[O-])c(S(=O)(=O)c2ccccc2)n1	inconclusive: 10 µM [quencher, side channel, partial curve]
CN(C)c1ccc(/C=C2\SC(=S)N(Nc3ncc(C(F)(F)F)cc3Cl)C2=O)cc1	inactive
COc1ccc(C(=O)NCc2ccccn2)cc1[N+](=O)[O-]	inconclusive: 31.6 µM [quencher, single point]

Reference: PubChem BioAssay AID2675 (National Center for Advancing Translational Sciences (NCATS), 2010)
